{
  "source": "PubChem BioAssay AID463173",
  "about": "(ICCB-Longwood Screening Facility, Harvard Medical School, 2010)",
  "note": "The whole screen tested about 52,000 compounds, of which about 1,700 (3.3%) were called active. Rule as the data show it: active = survival mostly below about 52% (no sharp cut-off); inactive = mostly above about 56%. Some of the results follow.",
  "data": [
    {"system": "Wild type", "experiment": "S. aureus survival, RN4220 and DeltatarO strains – OD600, teichoic acid synthesis inhibitors, primary screen (AID 463173)", "conditions": "S. aureus RN4220 wild type/DeltatarO growth, OD600, 18 h, hits give low values, screened at 18.75 µg/mL (by protocol)", "values": [
      {"smiles": "O=C(CSCc1ccc(F)cc1)N1CCN(c2ccccc2F)CC1", "survival": "inactive: 99%"},
      {"smiles": "Cc1cc2c(cc1S(=O)(=O)NCc1ccc(F)cc1)n(C)c(=O)c(=O)n2C", "survival": "inactive: 85%"},
      {"smiles": "Cc1ccc(-c2nn3c(-c4ccccc4C)nnc3c3ccccc23)cc1", "survival": "inactive: 51%"},
      {"smiles": "CC(C)c1nc2ccccn2c1NC1CCCCC1", "survival": "inactive: 101%"},
      {"smiles": "CCOC(=O)c1cc(-c2ccccc2)n(-c2cccc(C(=O)Nc3cccc(SC)c3)c2)c1C", "survival": "active: 0%"},
      {"smiles": "Cc1cn2c(=O)cc(COC(=O)c3ccc(NC(=O)COc4ccccc4C)cc3)nc2s1", "survival": "inactive: 76%"},
      {"smiles": "COc1ccc(CCC(=O)NCCc2csc(-c3ccc(F)cc3)n2)cc1", "survival": "inactive: 73%"},
      {"smiles": "CCOC(=O)c1oc2ccc(Br)cc2c1N", "survival": "inactive: 107%"},
      {"smiles": "COc1ccc(OC)c(NC(=O)CSc2nc(=O)n(CCN(C)C)c3c2CCC3)c1", "survival": "inactive: 76%"},
      {"smiles": "CCc1ccccc1NC(=O)N1CCOc2ccccc21", "survival": "inactive: 112%"},
      {"smiles": "CCCOc1ccc(C2C(=O)N(C3CCCCCC3)CC(=O)N2Cc2ccccc2OC)cc1OC", "note": "(stereo unspecified)", "survival": "inactive: 87%"},
      {"smiles": "O=C(Cn1ncc2c([nH]c3ccccc32)c1=O)NCCCN1CCN(c2ccc(F)cc2)CC1", "survival": "inactive: 85%"},
      {"smiles": "CCCn1c2ccccc2c2cnn(CC(=O)Nc3cc(C)c(Cl)cc3OC)c(=O)c21", "survival": "inactive: 133%"},
      {"smiles": "CCc1ccc(-n2c(=O)c3c4c(sc3n(Cc3ccccc3C#N)c2=O)CCCC4)cc1", "survival": "inactive: 140%"},
      {"smiles": "CC1CCc2c(sc(NC(=O)Cc3ccccc3)c2C(=O)Nc2ccc(Cl)cc2)C1", "note": "(stereo unspecified)", "survival": "inactive: 70%"},
      {"smiles": "COc1ccc(CCCc2nnc(SCC(=O)Nc3cccc(F)c3C)o2)cc1", "survival": "inactive: 75%"},
      {"smiles": "CCOC(=O)C1CCCN(C(=O)c2ccc3c(c2)sc2nc(-c4cccc(OC)c4)cn23)C1", "note": "(stereo unspecified)", "survival": "inactive: 86%"},
      {"smiles": "CCOCCc1nn2c(=O)cc(COC(=O)c3ccccc3OC)nc2s1", "survival": "inactive: 78%"},
      {"smiles": "COCCCn1c(SCc2cccc(Cl)c2)nc2c(sc3ccccc32)c1=O", "survival": "inactive: 133%"},
      {"smiles": "Cc1ccccc1-c1noc(CSc2nc3ccccc3[nH]2)n1", "survival": "inactive: 59%"},
      {"smiles": "O=C(NCCc1ccccc1)c1cc(Nc2ccccc2)nc2ccccc12", "survival": "inactive: 67%"},
      {"smiles": "Cc1cc(=O)n2nc(N(C)CC(=O)NCc3ccccc3C)sc2n1", "survival": "inactive: 88%"},
      {"smiles": "CCCC(=O)Nc1cccc(OCc2cc(=O)n3cccc(C)c3n2)c1", "survival": "inactive: 72%"},
      {"smiles": "CCc1ccccc1Nc1nn2c(=O)c3ccc(C(=O)NCCC4=CCCCC4)cc3nc2s1", "survival": "inactive: 135%"},
      {"smiles": "CCOCCc1nnc(NC(=O)C(=O)c2cc(C)n(-c3ccc(C)cc3C)c2C)s1", "survival": "inactive: 85%"},
      {"smiles": "Cc1ccc(S(=O)(=O)N2C(=O)CCC2C(=O)N2CCCC2)cc1", "note": "(stereo unspecified)", "survival": "inactive: 102%"}
    ]}
  ]
}
